# Publication PMC10668032
# The other results are listed elsewhere or left out. At the low end of the ranking the order means little.
# Molecular target: SIX1-Q177R homeodomain (UniProt Q15475)
# Test: universal protein binding microarray
# Details: Universal all-10-mer PBM (8x60K, AMADID 030236), 300 nM GST-tagged protein, Alexa Fluor 488 anti-GST; buffer, salt, pH and temperature not stated; high values mean tight binding; most listed sequences are background and not binding sites; double strand, one strand shown
row,Sequence,binding signal
1,TCGAGTCA,0.0194 E-score
2,ATTTTCCA,0.0628 E-score
3,AAACGATG,-0.342 E-score
4,GGTTATAC,0.118 E-score
5,GATGAGCA,0.0647 E-score
6,CCACCCAG,0.0226 E-score
7,ACGGGACA,0.157 E-score
8,ACAGTCCT,-0.234 E-score
9,CAATTGTG,0.113 E-score
10,CTGCTCCA,-0.137 E-score
11,CGGCGCCA,-0.22 E-score
12,GACCAATC,-0.171 E-score
13,ACGCCCCT,0.205 E-score
14,CGTTGGAC,0.07 E-score
15,AAGGAGTG,0.226 E-score
16,GAACTCAA,-0.131 E-score
17,ATACGCTG,-0.0646 E-score
18,ACGTTATG,-0.129 E-score
19,GTGAAAAA,-0.099 E-score
20,CTCGGTCC,-0.0957 E-score
21,AAACATTT,-0.321 E-score
22,ATGCCACG,-0.00694 E-score

row,Sequence,binding signal
1,CATCAGAC,0.0762 E-score
2,AATTAATA,-0.23 E-score
3,CAAGTTTC,-0.176 E-score
4,AAACCAAA,-0.139 E-score
5,CGACTATA,0.0452 E-score
6,AGAATGGG,-0.115 E-score
7,CGATAACG,-0.0226 E-score
8,ATGCGGTC,-0.159 E-score
9,GCGGCGCC,0.00679 E-score
10,GGGATACC,0.341 E-score
11,CGACATAC,0.00625 E-score
12,AATACTTG,-0.045 E-score
13,AGAATGTC,-0.29 E-score
14,CGCTCGTA,0.0568 E-score
15,ACTTCTTC,-0.137 E-score
16,ACAGGGTG,0.222 E-score
17,TAAATGTA,-0.219 E-score
18,GTTGATTA,0.0632 E-score
19,CGCCGCAA,-0.121 E-score
20,ACAATGCC,-0.0768 E-score
21,AGTAGCTC,-0.119 E-score
22,GGCTAAGA,-0.132 E-score

row,Sequence,binding signal
1,CATAGGTA,0.00382 E-score
2,CTAAGGGA,-0.0103 E-score
3,AAATATAT,0.0682 E-score
4,GATCGTGA,-0.0488 E-score
5,GCACAGTA,-0.172 E-score
6,ACTCCTCT,0.174 E-score
7,CATAAATG,-0.0598 E-score
8,GAGAAAAA,-0.339 E-score
9,AAGCGCGC,-0.126 E-score
10,ACTGTCCT,-0.04 E-score
11,ACATTAGG,0.0302 E-score
12,AGACCGGA,-0.0238 E-score
13,AAAAGTGA,-0.228 E-score
14,CCAATTGA,-0.208 E-score
15,CCCTACGA,0.0823 E-score
16,GACTCTAC,0.0903 E-score
17,GCCATGGA,0.0191 E-score
18,AATCTAGA,-0.121 E-score
19,AGCCGCCA,-0.0871 E-score
20,GATGGAGC,-0.00109 E-score
21,GGATCAAA,0.0994 E-score
22,GTCTGTAA,0.00823 E-score

row,Sequence,binding signal
1,ACCGCTTC,-0.0987 E-score
2,GTAAGTAA,-0.104 E-score
3,GTAGGGAC,-0.0649 E-score
4,ATTTTCGG,-0.111 E-score
5,TTACGAAA,-0.226 E-score
6,CAATTATG,-0.171 E-score
7,GATTGCTA,-0.0859 E-score
8,AACCTGGC,-0.00605 E-score
9,ACAAAAGG,-0.151 E-score
10,AGAAATAG,-0.184 E-score
11,CATCAAGC,-0.247 E-score
12,CCCGTAGC,0.0179 E-score
13,CTCCTACA,0.243 E-score
14,CAGCGTGG,-0.0101 E-score
15,ACAACCGT,-0.091 E-score
16,GATCAGAA,-0.132 E-score
17,CCGGCACG,0.0633 E-score
18,AGCCCACA,-0.0829 E-score
19,AACTGTTA,-0.231 E-score
20,ACGTTAAG,-0.196 E-score
